Measurements from PubChem BioAssay AID493208 (National Center for Advancing Translational Sciences (NCATS), 2011).
Screen size: about 44,000 compounds; about 340 (0.77%) were called active. Not shown: some 5% with an inconclusive outcome. Calls follow the shape of the dose curve; as a rule, active = well fitted inhibition curve with a large enough effect; inconclusive = small, poorly fitted or top-dose-only effect; inactive = flat fitted curve, though single readings scatter. The list shows a part of the results.

Experiment: Acumen qHTS Assay for Inhibitors of the mTORC1 Signaling Pathway in MEF (Tsc2-/-, p53-/-) Cells: Sytravon;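 also: plate controls were DMSO for no effect and rapamycin for full effect; nearly all actives have a fitted effect of over 50% in size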
Conditions: phospho-rpS6 immunofluorescence/PI, 24 h; series mostly up to 38.3 µM; activity change, negative = inhibition: at the top concentration
Procedure, shortened: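 Compounds act on Tsc2-/-, p53-/- fibroblasts carrying an empty vector for 24 h before fixation and dual staining for phospho-S6 and DNA (propidium iodide). Values are percentages of cells above a rapamycin-defined pS6/PI threshold.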

Activity change, negative = inhibition, inactive:
CCOC(=O)C1=C(CN(CC)Cc2ccccc2)NC(=O)NC1c1ccc(OC(C)C)cc1 (stereo not given) -2.77%, COc1ccccc1CNC(=O)c1ccc(N2CCCC2)c(NC(=O)NCc2ccc(F)cc2)c1 0%, CC(C)CN(CCCNC(=O)CN1N=C(c2ccccc2)CCC1=O)CC(C)C -10.9%, CCOc1ccc(CCNC(=O)c2[nH]c3cc(OC)ccc3c2Sc2ccccc2)cc1OCC 0.899%, O=C(Cn1ncc2c3ccccc3n(Cc3ccccc3F)c2c1=O)N1CCCCC1 0.393%, COc1ccc(N2CCN(c3ccc(-c4nc(-c5cccc(C)c5)no4)cc3[N+](=O)[O-])CC2)cc1 1.42%, O=C(NCCC1=CCCCC1)c1ccc2c(c1)N(Cc1cccc(Cl)c1)C(=O)c1ccccc1S2(=O)=O -1.96%, CCOc1ccc(NC(=O)Cn2c(=O)cc(C)c3c(C)nn(-c4cccc(Cl)c4C)c32)cc1 -11.9%, CCOc1ccc(S(=O)(=O)c2cn(Cc3ccc(OC)cc3)c3ccc(F)cc3c2=O)cc1 2.98%, CCOc1ccc(C(=O)N2CCN(CCc3ccccn3)CC2)cc1 -3.93%, Cc1nn(-c2ccc(N3CCCC3)nn2)c(C)c1CCC(=O)NCc1ccc(OC(C)C)cc1 -4.17%, Cn1c(=O)[nH]c(=O)c2c1nc1n2CCN1c1ccccc1 -2.35%, CC(C)c1ccc(NC(=O)CCNS(=O)(=O)c2ccc3c(c2)CCCC(=O)N3)cc1 4.13%, CCOC(=O)CC(NC(=O)CCc1c(C)nc2ncnn2c1C)c1ccc(OC(C)C)cc1 (stereo not given) -0.907%, Cc1ccccc1CSc1nc2cccnc2n1Cc1ccc(C(=O)NC2CC2)cc1 -8%, CCOc1ccc(Nc2nc(C)c(NC(=O)c3cccc(OC)c3)c(Nc3ccc(OCC)cc3)n2)cc1 1.18%, Cc1ccc(N2CCN(S(=O)(=O)c3nnc(NC(=O)c4ccc(C(C)C)cc4)s3)CC2)cc1 0.585%, CCOc1ccc(NC(=O)CN2C(C(=O)OC)=C(c3ccccc3)c3cc(Cl)ccc3S2(=O)=O)cc1 0.693%, Cc1cc(=O)[nH]c2nnc(SCc3ccc(Cl)cc3)n12 -0.165%, COC(=O)C1=C(c2ccccc2)c2ccccc2S(=O)(=O)N1CC(=O)Nc1ccc(OC)cc1OC -3.81%, Cc1ccc(Cl)cc1-n1ncc2c(N3CCC(C)CC3)ncnc21 -12.9%, Cc1ccc(CNC(=O)CN2CCN(Cc3ccc(F)cc3)C2=O)cc1 19.2%, O=C(NCc1ccccc1)C1CCN(S(=O)(=O)c2ccc3[nH]c(=O)ccc3c2)CC1 -4.11%, COc1ccc(NC(=O)c2c(NCc3cccc(F)c3)sc3c2CCCC3)c(OC)c1 -3.91%, Cc1cc2nc(-c3cccc(NC(=O)COc4ccc(Cl)c(C)c4)c3)oc2cc1C 2.19%, Cc1cccc(N(C)S(=O)(=O)c2c(C(=O)N3CCCCCC3)c(C)n(C)c2C)c1 11.4%, COc1ccccc1NC(=O)C1CCN(S(=O)(=O)c2cn(C)cn2)CC1 21.7%, COc1ccccc1-c1cc(NC(=O)COc2ccc(C)c(C)c2)n(-c2ccccc2)n1 -0.777%, CCOc1ccc(CCNC(=O)c2cnc3sc(N4CCCCCC4)nn3c2=O)cc1 9.51%, COc1ccc(OC)c(NC(=O)CN2CCCN(Cc3cc(C)ccc3C)S2(=O)=O)c1 -6.84%, COc1ccc(-c2cc(C(F)(F)F)nc(SCC(=O)NCc3ccc(Cl)cc3)n2)cc1 -6.39%, Cc1cccc2c1-c1sc(C(=O)N3CCN(c4cccc(Cl)c4)CC3)cc1CO2 -2.26%, CC1=C(C(=O)Nc2ccc(F)cc2F)C2(CCCCCC2)OC1=O -7%, O=C(CSc1nccn1Cc1ccc(Cl)cc1)NCc1ccccc1 -15.1%, CCOC(=O)c1ccc(N2C(=O)c3n[nH]c(-c4ccco4)c3C2c2ccc(F)cc2)cc1 (stereo not given) -0.336%, COc1ccccc1CNC(=O)C(CC(C)C)N1Cc2ccccc2C1=O (stereo not given) -11%, O=C(CN1C(=O)C2(SCC(=O)N2c2ccc(F)c(F)c2)c2ccccc21)Nc1ccccc1F (stereo not given) -8.03%, Cc1cccc(CC(=O)NCCc2csc(-c3ccc(C(F)(F)F)cc3)n2)c1 -25.9%, Cc1ccc(C)c(C(=O)COC(=O)CCCC(=O)Nc2cc(C(F)(F)F)ccc2Cl)c1 -17.9%, CC(=O)Nc1cccc(NC(=O)CSc2cn(CC(=O)N3CCCCCC3)c3ccccc23)c1 -4.44%, CNC(=O)C1CCC(Cn2c(=O)c3sccc3n(CC(=O)Nc3cc(F)ccc3F)c2=O)CC1 (stereo not given) -4.85%, CCOC(=O)c1cccc(NC(=O)N2CCC(CN3CCCCCC3)CC2)c1 -8.26%, O=C(c1cn(CCOc2ccc(Cl)cc2)c2ccccc12)C1CCCCC1 1.38%, COc1cn(CC(=O)Nc2cc(C)ccc2C)c(CN2CCCCC2)cc1=O 1.39%, O=[N+]([O-])c1cc(-c2nc(-c3ccncc3)no2)ccc1NCc1ccccc1 -6.61%, COc1ccccc1NC(=O)C1=C(C)Nc2nc(SCc3ccccc3Cl)nn2C1c1ccncc1 (stereo not given) -3.94%, CCN(CC)S(=O)(=O)c1ccc(C(=O)NCCSc2c(-c3ccc(OC)cc3)[nH]c3ccccc23)cc1 -11.3%, CCOc1ccc(C(=O)c2cn(CC(=O)Nc3cc(OC)ccc3OC)c3cc(OC)c(OC)cc3c2=O)cc1 -1.41%, COc1ccc(-c2ccc(=O)n(CC(=O)NCCc3ccccc3)n2)cc1 0.8%, CCc1ccc(OCCSc2nc(-c3cccc(C)c3)nc3cc(=O)[nH]n23)cc1 -1.82%, COc1ccc(NC(=O)CCSc2nc(-c3ccco3)cc(C(F)(F)F)n2)cc1OC -0.529%, O=C(CN1C(=O)C2(SCC(=O)N2c2ccc(F)cc2)c2ccccc21)NCCc1ccccc1 (stereo not given) -5.67%, COc1ccc(NCc2nnc3n2CCCCC3)c(OC)c1 6.64%, Cc1cc(C)cc(Nc2cc(C(=O)NCc3ccccc3)c3ccccc3n2)c1 -1.36%, O=C(Nc1ccccc1C(F)(F)F)c1cc2ccccn2n1 3.27%, CCOC(=O)C1CCN(C(c2ccc(F)cc2)c2sc3nc(-c4ccco4)nn3c2O)CC1 (stereo not given) 0.331%, Cc1cc(C)c(NC(=O)C(C)n2nnc3sc(-c4ccccc4)cc3c2=O)c(C)c1 (stereo not given) -0.187%, CCOC(=O)c1cccc(NC(=O)c2cc3cc4ccc(C)cc4nc3s2)c1 -2.01%, CSc1ccc(CCNC(=O)c2cc3c(-c4ccccc4F)nn(C)c3s2)cc1 -11.9%, Nc1c(C(=O)NCc2ccccc2)nnn1Cc1cccc(Br)c1 -22.1%
